This is an account of results in publication PMC4336329 (PLoS ONE, 2015).

Screen size: about 310,000 compounds; about 14,000 (4.5%) showed an effect of 50% or more. Effects have a minus sign here. This is one part of the list.
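Further: peak tail current of the secondary pulse compared with the same well before compound.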

In this experiment the target is human ether-à-go-go-related gene (hERG) potassium channel (human, UniProt Q12809). The experiment in a line: primary screen, population patch clamp on CHO cells stably expressing hERG.
Chain of human ether-à-go-go-related gene (hERG) potassium channel (Q12809 whole entry, looked up): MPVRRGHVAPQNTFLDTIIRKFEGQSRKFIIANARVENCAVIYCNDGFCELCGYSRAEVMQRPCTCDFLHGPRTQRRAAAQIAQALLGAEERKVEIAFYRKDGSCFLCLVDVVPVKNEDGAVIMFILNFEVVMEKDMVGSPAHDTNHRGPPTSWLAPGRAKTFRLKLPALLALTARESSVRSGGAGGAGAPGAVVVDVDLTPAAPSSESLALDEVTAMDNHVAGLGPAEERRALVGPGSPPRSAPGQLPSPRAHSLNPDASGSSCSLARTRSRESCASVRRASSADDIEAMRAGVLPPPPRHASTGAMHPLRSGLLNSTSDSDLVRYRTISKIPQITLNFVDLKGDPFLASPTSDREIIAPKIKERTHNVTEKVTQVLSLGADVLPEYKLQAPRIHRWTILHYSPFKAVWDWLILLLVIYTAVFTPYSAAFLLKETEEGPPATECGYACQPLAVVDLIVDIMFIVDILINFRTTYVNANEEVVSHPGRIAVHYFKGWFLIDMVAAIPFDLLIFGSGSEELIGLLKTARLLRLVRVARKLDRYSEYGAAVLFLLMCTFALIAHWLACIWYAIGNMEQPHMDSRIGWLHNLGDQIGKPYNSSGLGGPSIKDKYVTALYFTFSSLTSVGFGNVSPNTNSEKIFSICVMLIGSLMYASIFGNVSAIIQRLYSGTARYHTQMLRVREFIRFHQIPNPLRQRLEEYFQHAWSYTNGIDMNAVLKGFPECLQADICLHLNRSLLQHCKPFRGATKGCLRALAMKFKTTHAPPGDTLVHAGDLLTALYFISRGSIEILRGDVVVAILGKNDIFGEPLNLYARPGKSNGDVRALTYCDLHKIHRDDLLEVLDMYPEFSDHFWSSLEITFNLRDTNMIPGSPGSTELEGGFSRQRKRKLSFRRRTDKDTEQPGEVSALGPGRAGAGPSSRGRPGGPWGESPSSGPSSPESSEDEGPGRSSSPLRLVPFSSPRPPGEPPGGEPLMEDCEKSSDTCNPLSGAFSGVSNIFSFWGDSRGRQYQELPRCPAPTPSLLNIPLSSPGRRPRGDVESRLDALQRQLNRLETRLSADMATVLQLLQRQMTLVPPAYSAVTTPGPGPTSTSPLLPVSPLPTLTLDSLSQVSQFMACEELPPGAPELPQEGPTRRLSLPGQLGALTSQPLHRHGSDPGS
On to `CC(C)=CCc1c([C@@H]2CCc3ccc(O)cc3O2)cc2c(c1O)OC(C)(C)C=C2`, for which the “hERG current change (%, negative = inhibition) at 10uM” value is listed as 18.1%.
The same measure for `Cn1c2ccccc2c2nnc(SCC(=O)NC3CC3)nc21`: 21%; for `CCc1ccccc1NC(=S)N(CCN(C)C)C(C)c1ccco1` (stereo not shown): -16.5%.
Regarding `CCCCN(CCCC)Cc1ccc(C(=O)NNC(=O)Nc2ccc(Cl)cc2)o1`, the “hERG current change (%, negative = inhibition) at 10uM” value was -33.4%.
Consider `COCCC(=O)N1CCC(C(=O)Nc2ccc(Oc3ccccc3)nc2)CC1`, for which the “hERG current change (%, negative = inhibition) at 10uM” value is 17.6%.
Consider `Cn1nccc1NC(=O)CC1(CC(=O)O)CCCCC1`, for which the “hERG current change (%, negative = inhibition) at 10uM” value was determined as 3.64%.
With `CCOC(=O)N1CCC(NC(=O)Cn2ncc3ccccc32)CC1`, the “hERG current change (%, negative = inhibition) at 10uM” value was found to be 5.84%.
For the molecule `CCCCCCCCCCCCN1C/C(=C\C(=O)OCC)c2cc(C(F)(F)F)ccc2S1(=O)=O`, the “hERG current change (%, negative = inhibition) at 10uM” value was 6.83%.
As to `O=C(COC(=O)Cn1nnc2ccccc21)Nc1ccccc1Br`, the “hERG current change (%, negative = inhibition) at 10uM” value was -1.61%.
The same measure for `C=CSc1sc(Cl)c(N2CCOCC2)c1[N+](=O)[O-]`: 0.0524%; for `CC(C)(C)NC(=S)/N=C(\N)N[N+](=O)[O-]`: 9.75%; for `CCCCCCNC(=O)Nc1ccccc1`: 2.08%.
The same measure for `COc1ccc(S(=O)(=O)NCCC(=O)NC2CCCCCCC2)cc1`: -21.4%; for `O=C1CC(c2ccccc2)CN1` (stereo not shown): 17.1%.
On to `O=C(CC1CC2CCC1C2)NC1CCCCCCC1` (stereo not shown), for which the “hERG current change (%, negative = inhibition) at 10uM” value is -9.41%.
Consider `CC(C)n1nc(C(=O)Nc2nnc(SCc3c(Cl)cccc3Cl)s2)c2ccccc2c1=O`, for which the “hERG current change (%, negative = inhibition) at 10uM” value is recorded as -5.58%.
The value for `CC(C)N(Cc1cc2ccccc2[nH]c1=O)C(=O)c1cccnc1` was -21.7%; that for `O=C(OCc1nnc(-c2ccc(Cl)cc2)o1)C12CC3CC(CC(O)(C3)C1)C2` was -7.27%; that for `COc1ccc(NS(=O)(=O)c2ccc(C)c(NC(=O)CN3C(=O)NC4(CCCC4)C3=O)c2)cc1` was -37.8%.
The same measure for `CC(=O)Nc1cc(C(=O)N2CCc3ccccc3C2)ccc1Sc1ccc(F)cc1`: -55.4%.
For `Cc1ccc(OCC(O)CN2CCOCC2)cc1` (stereo not shown), the “hERG current change (%, negative = inhibition) at 10uM” value was found to be 8.2%.
The value for `Cc1ccc(S(=O)(=O)NCCSc2nnnn2-c2ccccc2)cc1` was -24.1%.
Consider `CCCc1nnc(NC(=O)CCC(=O)Nc2ccc(Br)cc2)s1`, for which the “hERG current change (%, negative = inhibition) at 10uM” value stood at 19%.
The value for `Cc1nn(C)cc1/C=N\NC(=O)c1ccc2c(c1)c(C)c(C)n2Cc1ccccc1` was 15.9%; that for `N#Cc1cc(Sc2ccccn2)c([N+](=O)[O-])cc1C#N` was -18.9%; that for `O=c1c(-c2ccc(O)cc2)coc2c([C@@H]3O[C@H](CO)[C@@H](O)[C@H](O)[C@H]3O)c(O)ccc12` was 31.1%.
Regarding `COc1ccccc1NC(=O)c1nn(-c2ccccc2)ccc1=O`, the “hERG current change (%, negative = inhibition) at 10uM” value amounted to 0.691%.
As for `CCCCc1n[nH]c2c1/C(=N/O)CC(c1ccccc1)C2` (stereo not shown), the “hERG current change (%, negative = inhibition) at 10uM” value was 8.46%.
The same measure for `COC(=O)C1=C(C)NC(=O)CC1c1cccc(Cl)c1Cl` (stereo not shown): -4.94%.
The value for `O=C(O)C1C2C=CC(C2)C1C(=O)NCCCN1CCCC1=O` (stereo not shown) was 9.28%; that for `COc1ccccc1CNC(=O)C1CC(c2ccccc2C(F)(F)F)=NO1` (stereo not shown) was -3.54%.
In the case of `O=C(NCc1ccccc1CN1CCCCC1)c1ccccc1N1CCCC1=O`, the “hERG current change (%, negative = inhibition) at 10uM” value is -5.29%.
As for `O=c1[nH]c(CN2CCN(CCO)CC2)nc2ccccc12`, the “hERG current change (%, negative = inhibition) at 10uM” value turned out to be 21.5%.
For `Cn1c(O)c(C=NCCN2CCOCC2)c(=O)[nH]c1=S`, the “hERG current change (%, negative = inhibition) at 10uM” value was found to be 9.47%.
The value for `Cn1cnc2cc(NC(=O)c3ccco3)ccc21` was 25%.
The same measure for `CC(C)(C)C(O)/C=C/c1ccc2c(c1)OCO2` (stereo not shown): 3.22%; for `CCOC(=O)CN(C(=O)CSc1nnc(-c2ccc(OC)c(OC)c2)o1)c1ccc(F)cc1`: -49.6%.
The value for `Cc1ccccc1-n1c(=O)n(Cc2ccco2)c(=O)c2[nH]cnc21` was 15.6%.
With `COCCCNC(=O)/C(C#N)=C/c1cccc(NC(=O)c2ccccc2Cl)c1`, the “hERG current change (%, negative = inhibition) at 10uM” value was found to be 4.62%.
The same measure for `Cc1cccc(CNC(=O)c2ccc3c(c2)N(C)CCS3)c1`: -59.4%; for `Cc1nn(Cc2ccc(Cl)cc2Cl)c(C)c1NC(=O)c1ccc(COc2cc(Cl)ccc2Cl)o1`: 8.69%; for `CN(C(=O)c1cccn(Cc2ccccc2)c1=O)c1ccccc1`: 13.3%.
`CC(C)COc1ccc(/C(=N/O)c2ccccc2)cc1`: the “hERG current change (%, negative = inhibition) at 10uM” value turned out to be 11%.
The same measure for `O=C1CC(=O)N(CCNc2ncc(C(F)(F)F)cc2Cl)C(=O)N1`: 11.9%; for `CCC1S/C(=N/C(=O)NC2CCCCC2)NC1=O` (stereo not shown): 17.1%; for `CN(C)C(CNC(=O)CCNC(=O)c1ccc(Br)cc1)c1ccco1` (stereo not shown): -12.6%.
The value for `O=C(Nc1nnc(-c2ccc(Cl)cc2)o1)c1ccc(N2C(=O)CCC2=O)cc1` was 12.9%.
On to `O=C(c1cc(-c2cccs2)on1)N1CCOCC1`, for which the “hERG current change (%, negative = inhibition) at 10uM” value was -9.61%.
The value for `O=S(=O)(c1ccccc1)N1CCN(c2ccccc2)CC1` was 12%; that for `NS(=O)(=O)c1ccc(CCNC(=O)CN2C(=O)c3ccccc3S2(=O)=O)cc1` was 1.3%.
For the molecule `COc1cc(NC(=O)CCNC(=O)Cn2cnc3ccccc3c2=O)cc(OC)c1OC`, the “hERG current change (%, negative = inhibition) at 10uM” value was found to be 8.38%.
The same measure for `O=C(c1ccco1)N1CCN(C2CC(=O)N(c3ccc(F)c(Cl)c3)C2=O)CC1` (stereo not shown): -14.2%; for `c1ccc2[nH]c(N3CCOCC3)nc2c1`: 8.82%.
The value for `CC(C)CCNc1nc2ccccc2nc1NS(=O)(=O)c1cccs1` was 5.76%; that for `CC1CCC2(CC1)NC(=O)N(CC(=O)NCCc1c[nH]c3ccccc13)C2=O` (stereo not shown) was -19.6%; that for `Cc1cccc(C(=O)OC(C)C(=O)N2CCc3ccccc3C2)c1C` (stereo not shown) was -33.6%.
For `Cc1ccc(S(=O)(=O)c2nc(-c3ccc(F)cc3)oc2N2CCOCC2)cc1`, the “hERG current change (%, negative = inhibition) at 10uM” value is on record as -45.3%.
In the case of `CCN(C(=O)Cn1ccc(C(F)(F)F)n1)c1c(N)n(Cc2ccccc2)c(=O)[nH]c1=O`, the “hERG current change (%, negative = inhibition) at 10uM” value is reported as -5.89%.
